Data published in the supplement of paper PMC10126150.
Sequences with one replicate were seen in a single cluster, so their values are uncertain.

System: ATP
Assay: switch fluorescence ratio, 500 uM ATP over buffer (Cy3 cluster intensity, sum of 5 cycles each) (fold (ratio)); higher = stronger signal-on switching upon ATP binding; sequences stand for … in TCGTCGGCAGCGTCAGATGTGTATAAGAGACAGTTTTTTTTTTTTTTTTTTTTTTTTT…TC
Settings: aptamer strand: ATP DNA aptamer (quencher-CACCTGGGGGAGTATTGCGGAGGAAGG + anchor), 100 nM annealed; ATP concentration: 500 uM; one replicate
Procedure, shortened: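 Clusters carrying Cy3-labelled switching strands on a modified Illumina MiSeq flow-cell were annealed to 100 nM quencher-labelled ATP aptamer and imaged in selection buffer. They were imaged again after 15 min with 500 uM ATP at 22 °C, over five buffer/ATP cycles with NaOH stripping and re-annealing in between. For each cluster, the fluorescence ratio is the summed Cy3 intensity of the target cycles divided by that of the buffer cycles, averaged per switch-domain sequence. Clusters outside 100-1000 RFU were left out.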
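Also: ATP exposure 15 min at 22 °C before imaging.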

Sequence	switch fluorescence ratio
GCAAAGTATA	0.996
ATGCGTGAT	0.977
AGATGGCCAG	1
CCGGTGGACG	0.961
TTTCCTTGCG	1.05
GATTGGTG	1
GATCCTACTT	1.05
TATAGGCGGA	1.03
GTCCCGCGTC	1.62
TCGTAAACGA	1
GATTGTGCAG	0.976
GTGCACCCCA	0.972
TAGGATCAAT	0.975
TTCTCCTCGT	1.06
GGAAGCAGTT	0.993
AGGACATGCC	1
TGACTGGGGG	0.966
TTGCAGGAAA	1.01
CTGATGGA	1.03
TATTGATCG	1.02
AAATAGGGCC	0.954
AATTTCTGCC	1.01
ATTATGTCA	1.03

Sequence	switch fluorescence ratio
CGGTACTGG	1.03
GCTGGCGAAC	0.997
TAAAACGGGA	1.08
GCTGAGGGCT	0.979
GATCGAAATT	0.984
CAGGGCTGCC	0.98
TTCTCGCCGG	1.22
GACGGGTCGG	0.983
ACTTTGTAC	1.01
AAGGAATTTA	1.02
CGGATCAGAC	1.09
AAATTAAGTT	0.991
TTTCTCACAT	1.05
ATTAACGAGT	0.977
AGGTCTGATA	1.04
AAGACGGTGG	0.982
GGTTACCATT	0.985
TCTAGTTCCG	0.988
TATTTGA	0.99
CACCAGTGTC	1.58
ACCGTTTGTC	1.03
TCTGCCGTTG	1.04
TGCCCCTGG	2.47

Sequence	switch fluorescence ratio
GTACTCGTGG	0.988
CACATTATCT	1.04
AGTGAATGAG	0.939
TGCTGGCCTA	1.01
TCAACAAGAT	1.61
GCGTTAAT	0.992
GACCGCGGCC	1.03
TTGTTTTA	0.981
CAACGGATAA	1.02
CATTAGGTTT	0.98
GTGTTCGAA	0.967
TATGGCATCC	1.04
CGACGAGATT	1.25
GGGCTTTC	1.01
TTGGAGATTC	1
ACATATCTGA	0.993
GCGAGTGTTC	1.05
CGCTTAATCG	0.967
GTCCTCGCCA	1.45
ATATACGTG	1.06
TCGTCGGCCT	0.978
AGGCGAATGT	0.969
TAGGATGGTC	0.942

Sequence	switch fluorescence ratio
ATTAGCATTA	1.05
GATTAGATGC	1.03
CCCCAACAGC	1.73
TATTTCATCA	0.975
TCAATAGTCT	1.03
GCGTGTGAGG	1
GGAATTGCAG	0.982
TCCAATTCAC	1.01
TTGCATTAAC	1.1
TAAGGTGGAG	1.02
TCAGGACAA	1.02
ACGGGGCTCC	1
CGAATCAATG	1.06
TTAGCCGCCT	1.07
GGTATAAGGC	0.992
GCCAACCCGC	1.43
ATCGGATCAC	1.01
GGATGGACGT	0.992
GATGCCTGAA	1.01
GCTAAGAACT	0.997
AGAAGCTGCA	0.997
TATGTCCA	0.983
GCCATACTA	1.52

Sequence	switch fluorescence ratio
TAACATAC	1.52
ACAAAAACGC	1.03
TTACGGAGCG	1.06
GGGGTCAAGA	0.936
TATTTGGTCT	1.05
CCCCGATCGG	0.962
TGGTTCGCCG	1.01
GCTAACCTGG	1.07
AAGTTTGTGC	0.959
GCGTGCTTTG	1.03
ACACGTGCG	1.04
AACCAGGAGA	1.08
ACTATCGGAA	1.29
CGAATATTA	1.06
TATTCTTGTC	0.98
ATGAACGCTC	1.24
TCCGCTGAGA	1.27
CGGAGGCTCT	1.07
CAAGACGGGA	0.976
CGCCTGGATC	1.08
CTAGTTTCCT	1.01
TTCGGACAGG	0.985
CGAGGCCCTT	1.46

Sequence	switch fluorescence ratio
ACAGGGCCGG	0.991
TCAGGGCCTA	1.05
GAGTACCAGT	1.02
TTACCGGTCT	1.05
AGGAAGGATG	1
AGTTCACTCC	1.01
GGGGCCTATT	0.951
TTGACCTTCG	1.17
GACGTTTGTC	0.932
TGTCGATAAT	1.02
GTTTCGGTGT	0.991
TTTCCTTGGG	1.11
CGTCTGCGGG	1.09
TAATACTAAT	0.991
CGGTTCTCGC	1.03
GGTTGACC	0.963
AGTTGGTGGG	0.969
TTGCGGAAGT	0.994
AAGAACGGGG	1.03
AGCTACGGGT	1.04
CTGCAGCTG	1.18
ACGCCTGCGT	1.01
GCTACCTGGG	1

Sequence	switch fluorescence ratio
GTTATGAAGT	1.01
TTCCATCTAG	0.976
TCAGCTGAAG	1.04
GGTGATCTAA	1.01
TAGCGTCCCT	1.04
AGTCAGAGTG	0.985
GGGTTTGACC	0.966
CTATTACTAT	0.967
CAGCAGAGTC	1.11
AACAACTCCG	1.59
TCGTTCTTGT	0.999
GGCAGTCCAC	1.02
AAATTTCGAG	1
GGATGATATA	1.04
ATCGGTTGCT	1
CCTAGTTGTC	1.02
AGGCCTCACG	1.03
GCATTACTGT	1.27
CAGCTTGACT	1
TGATGGCGCC	1.04
